The target of experiment [1] is human Notch1-Gal4 chimeric receptor on U2OS FlpIn TREx cells (human), P46531. Nature of the experiment: cell-based or functional assay.
The target of experiment [2] is human Notch2-Gal4 chimeric receptor on U2OS FlpIn TREx cells (human), Q04721. The experiment in a line: cell-based or functional assay.

A value given as a limit tells only on which side of the number the result lay.

Sequence of human Notch2-Gal4 chimeric receptor on U2OS FlpIn TREx cells (human), Q04721 (Q04721 26-2471, change not shown): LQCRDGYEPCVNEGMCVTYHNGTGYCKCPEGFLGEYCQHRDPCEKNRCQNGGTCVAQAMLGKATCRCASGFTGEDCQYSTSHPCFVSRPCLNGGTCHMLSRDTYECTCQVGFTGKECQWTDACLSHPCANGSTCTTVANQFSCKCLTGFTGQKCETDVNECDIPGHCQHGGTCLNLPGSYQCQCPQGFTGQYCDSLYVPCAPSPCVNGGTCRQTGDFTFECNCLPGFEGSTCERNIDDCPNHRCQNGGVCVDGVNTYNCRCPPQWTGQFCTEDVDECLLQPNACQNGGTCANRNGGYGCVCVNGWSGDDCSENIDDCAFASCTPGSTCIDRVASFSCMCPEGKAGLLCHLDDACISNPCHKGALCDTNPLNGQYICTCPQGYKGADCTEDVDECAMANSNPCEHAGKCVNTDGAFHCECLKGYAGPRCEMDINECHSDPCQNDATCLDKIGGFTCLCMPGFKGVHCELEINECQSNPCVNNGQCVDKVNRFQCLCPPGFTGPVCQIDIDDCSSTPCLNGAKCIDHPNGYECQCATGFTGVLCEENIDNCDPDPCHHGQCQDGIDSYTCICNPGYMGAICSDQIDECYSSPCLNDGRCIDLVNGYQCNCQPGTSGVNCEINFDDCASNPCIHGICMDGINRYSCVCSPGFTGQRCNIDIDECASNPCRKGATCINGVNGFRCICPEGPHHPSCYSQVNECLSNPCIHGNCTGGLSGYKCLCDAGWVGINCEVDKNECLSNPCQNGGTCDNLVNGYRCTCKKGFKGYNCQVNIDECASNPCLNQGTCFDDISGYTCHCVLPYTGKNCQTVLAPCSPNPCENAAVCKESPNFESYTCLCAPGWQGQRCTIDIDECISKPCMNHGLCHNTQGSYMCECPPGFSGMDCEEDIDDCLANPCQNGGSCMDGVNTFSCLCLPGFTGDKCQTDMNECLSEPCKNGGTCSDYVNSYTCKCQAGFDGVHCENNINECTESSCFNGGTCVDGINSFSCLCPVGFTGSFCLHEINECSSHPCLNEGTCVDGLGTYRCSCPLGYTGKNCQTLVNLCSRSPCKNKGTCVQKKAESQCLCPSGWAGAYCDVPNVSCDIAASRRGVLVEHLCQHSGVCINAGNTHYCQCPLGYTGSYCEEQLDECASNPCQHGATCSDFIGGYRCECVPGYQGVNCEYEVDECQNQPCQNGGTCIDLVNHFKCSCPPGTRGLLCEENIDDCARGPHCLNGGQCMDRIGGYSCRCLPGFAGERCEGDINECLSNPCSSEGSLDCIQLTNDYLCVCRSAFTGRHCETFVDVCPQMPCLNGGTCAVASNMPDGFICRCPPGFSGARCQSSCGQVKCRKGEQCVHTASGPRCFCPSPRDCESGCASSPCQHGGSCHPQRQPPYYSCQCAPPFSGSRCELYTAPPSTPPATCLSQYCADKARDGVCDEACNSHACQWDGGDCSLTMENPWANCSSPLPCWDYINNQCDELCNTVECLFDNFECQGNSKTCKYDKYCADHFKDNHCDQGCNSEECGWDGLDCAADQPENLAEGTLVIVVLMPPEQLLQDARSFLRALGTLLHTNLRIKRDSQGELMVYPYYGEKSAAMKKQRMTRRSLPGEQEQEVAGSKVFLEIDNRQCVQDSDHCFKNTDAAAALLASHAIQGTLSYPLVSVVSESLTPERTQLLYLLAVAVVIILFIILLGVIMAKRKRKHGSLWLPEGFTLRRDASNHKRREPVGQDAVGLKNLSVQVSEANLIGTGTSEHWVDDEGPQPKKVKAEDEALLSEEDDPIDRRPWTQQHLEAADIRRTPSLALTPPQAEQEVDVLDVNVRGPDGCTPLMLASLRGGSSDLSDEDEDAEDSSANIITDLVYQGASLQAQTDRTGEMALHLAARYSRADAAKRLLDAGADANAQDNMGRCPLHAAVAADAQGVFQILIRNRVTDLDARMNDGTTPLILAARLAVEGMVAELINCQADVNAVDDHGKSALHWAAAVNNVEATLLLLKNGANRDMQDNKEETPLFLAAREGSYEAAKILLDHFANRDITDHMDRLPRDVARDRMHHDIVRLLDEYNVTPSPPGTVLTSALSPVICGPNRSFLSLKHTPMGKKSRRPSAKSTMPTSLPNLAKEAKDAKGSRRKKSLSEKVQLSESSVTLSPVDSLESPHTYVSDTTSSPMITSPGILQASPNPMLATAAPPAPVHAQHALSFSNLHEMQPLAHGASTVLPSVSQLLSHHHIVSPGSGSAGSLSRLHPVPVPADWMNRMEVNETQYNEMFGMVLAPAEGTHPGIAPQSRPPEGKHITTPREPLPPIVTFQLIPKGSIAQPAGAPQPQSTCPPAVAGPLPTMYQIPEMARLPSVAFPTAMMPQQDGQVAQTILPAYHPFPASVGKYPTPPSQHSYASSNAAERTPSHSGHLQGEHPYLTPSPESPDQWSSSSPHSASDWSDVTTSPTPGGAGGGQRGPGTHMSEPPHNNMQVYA

B1: A673-C2-110 (antibody, human IgG1, lambda)
heavy: QVQLVQSGTEVKKPGASVRVSCKPSADTFTSYYVHWVRQAPGQGLEWMGTINPTGTYTRYAQQFQGRVTVTRDTSTSSVYMELSSLRSEDSAVYYCARDVRPYTAMYSFDNWGRGTTVTVSSASTKGPSVFPLAPSSKSTSGGTAALGCLVKDYFPEPVTVSWNSGALTSGVHTFPAVLQSSGLYSLSSVVTVPSSSLGTQTYICNVNHKPSNTKVDKRV[human IgG1 Fc not spelt out]
light: SYVLTQPPSVSVSPGQTATITCSGDALPKQYANWYQQKPGQAPVLMIYKDSDRPSGIPERFSGSSSGTKATLTISGVQAEDEADYYCQSADNSGTNYVFGTGTKLTVLGQPKAAPSVTLFPPSSEELQANKATLVCLISDFYPGAVTVAWKADSSPVKAGVETTTPSKQSNNKYAASSYLSLTPEQWKSHRSYSCQVTHEGSTVEKTVAPTECS
Molecule B1 came in with a hN1 (IC50, nM), reporter assay in experiment [1] of over 333 nM. Besides, the hN2, inhibition of Luc activity at [166 nM] Mab in experiment [2] is under 15%.

(Values after patent publication US20110286916A1.)
